Test results reported in PubChem BioAssay AID1030 (National Center for Advancing Translational Sciences (NCATS), 2008).
Out of some 220,000 compounds screened, about 16,000 (7.3%) were called active. This list was built around the results that the source calls inconclusive (neither active nor inactive); the mix of calls is not that of the screen. The call rests on the fitted dose curve; in most records, active means well fitted inhibition curve with a large enough effect (not every such curve was filed as active); inconclusive means small, poorly fitted or top-dose-only effect, or another doubt; inactive means no such curve, though single readings can be large or run the other way. Potencies beside an inconclusive call are fits to weak or partial responses and may not hold up.

These compounds were tested against Aldehyde dehydrogenase 1A1 (Homo sapiens) (UniProt P00352) (assay: qHTS Assay for Inhibitors of Aldehyde Dehydrogenase 1 (ALDH1A1)). Conditions: Purified ALDH1A1, NADH fluorescence, propionaldehyde substrate; series mostly up to 75.3 µM; activity, negative = inhibition: at the top concentration.
UniProt P00352, sequence (P00352 whole entry, looked up): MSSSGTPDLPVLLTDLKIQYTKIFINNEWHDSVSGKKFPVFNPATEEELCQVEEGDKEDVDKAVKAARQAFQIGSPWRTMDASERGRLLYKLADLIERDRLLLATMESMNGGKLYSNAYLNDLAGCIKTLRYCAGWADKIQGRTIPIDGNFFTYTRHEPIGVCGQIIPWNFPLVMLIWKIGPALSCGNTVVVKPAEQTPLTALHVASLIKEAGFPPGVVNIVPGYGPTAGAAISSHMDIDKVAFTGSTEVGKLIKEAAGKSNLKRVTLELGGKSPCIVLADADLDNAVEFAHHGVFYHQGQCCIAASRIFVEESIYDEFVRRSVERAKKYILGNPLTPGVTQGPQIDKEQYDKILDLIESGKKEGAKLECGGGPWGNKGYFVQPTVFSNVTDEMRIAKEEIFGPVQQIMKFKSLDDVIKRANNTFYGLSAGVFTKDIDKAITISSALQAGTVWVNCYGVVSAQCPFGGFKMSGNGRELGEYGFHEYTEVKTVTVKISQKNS
Potency means the concentration at half of the fitted maximal effect; tags describe the fitted curve by direction and shape.
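Wherever activity, negative = inhibition is given: plate controls were no enzyme wells and a reference inhibitor.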

Potency, active:
CCOC(=O)C1(CCCc2ccccc2)CCN(C(=O)c2cnc(C)cn2)CC1 4.47 µM
CC1(C)Cc2ccccc2C(CSc2ccccc2C(=O)O)=N1 39.8 µM
CC(C)C1CC(=O)NC(SCC(=O)Nc2ccc(Br)cc2)=C1C#N (configuration not stated) 8.91 µM
O=C1C2ON(c3ccccc3)C(c3cccnc3)C2C(=O)N1Cc1ccccc1 (configuration not stated) 35.5 µM
CCOC(=O)c1sc(=S)n(-c2ccccc2OC)c1N 3.16 µM
Cc1nc(C)c(C(=O)NCc2ccccc2Cl)o1 22.4 µM
CCOC(=O)C1=C(C)NC(=S)N(C=O)C1c1ccccc1 (configuration not stated) 2 µM
C=CCN(CC=C)C(=S)NC(=O)Cc1cccc2ccccc12 18.9 µM
CCOC(=O)c1c(-c2ccccc2)csc1NC(=O)CCN1CCOCC1 28.2 µM
O=C(CN1CCOCC1)Nc1ccc(Oc2ccc(NC(=O)CN3CCOCC3)cc2)cc1 17.8 µM
COc1ccc(Oc2nc3c(c(=O)n(C)c(=O)n3C)n2Cc2ccccc2)cc1 15.8 µM

Potency, inactive:
COc1ccc(C(=O)c2ccccc2O)c(O)c1

Potency, inconclusive:
C/C(CC(=O)N1CCN(C=O)CC1)=N\NC(=O)c1ccc(Cl)cc1 3.55 µM [inhibitor, partial curve]
COc1ccc(NCc2nn(CC(=O)c3ccc(Br)cc3)c3[n+]2CCCCC3)cc1 44.7 µM [inhibitor, single point]
Cc1nc2ccc(NC(=S)N3CCC(C)CC3)cc2nc1C 22.4 µM [inhibitor, partial curve]
NNC(=O)c1cccc(O)c1 20 µM [inhibitor, single point]
CS(=O)(=O)N(Cc1ccccc1)c1ccccn1 37.7 µM [inhibitor, single point]
CC1CCN(C(=O)c2ccccc2NC(=O)c2cccc(S(=O)(=O)N3CCOCC3)c2)CC1 17.8 µM [inhibitor, single point]
S=c1[nH]nc(-c2ccc3c(c2)OCO3)n1-c1ccccc1 31.6 µM [inhibitor, single point]
CCCn1nnc(NC(=S)NC(=O)c2cccs2)n1 39.8 µM [inhibitor, single point]
CCN(CC)S(=O)(=O)c1ccc(S(=O)(=O)N2CCN(CCC#N)CC2)cc1 25.1 µM [inhibitor, single point]
CC1=C(C(=O)NCc2ccccn2)C2(CCC(C)CC2)OC1=O (configuration not stated) 44.7 µM [inhibitor, single point]
O=C(O/N=C\c1ccc(N2CCCCC2)c([N+](=O)[O-])c1)c1cccc(C(F)(F)F)c1 28.2 µM [inhibitor, partial curve]
CC1CCCN(Cc2nc3c(c(=O)n(C)c(=O)n3C)n2CC(=O)c2ccccc2)C1 (configuration not stated) 20 µM [inhibitor, partial curve]
O=C(NCc1ccccn1)c1cccc(NS(=O)(=O)c2cccc(Cl)c2)c1 22.4 µM [inhibitor, partial curve]
CC(C)NC(=S)N/N=C/c1ccc(N2CCOCC2)cc1 25.1 µM [inhibitor, single point]
Cc1c(C(=O)N2CCN(c3ccc(C(F)(F)F)cn3)CC2)oc2ccccc12 39.8 µM [inhibitor, single point]
Nc1nc(-c2ccc3ccccc3c2)cs1 39.8 µM [inhibitor, single point]
c1ccc2[nH]c(-c3nc4ccccc4[nH]3)nc2c1 25.1 µM [inhibitor, partial curve]
O=S(=O)(/C=C/c1ccccc1)Nc1ccc(N2CCOCC2)cc1 14.1 µM [inhibitor, partial curve]
COc1ccc(CN(C(=O)Cc2cccs2)C(C(=O)NC2CCCC2)c2ccncc2)cc1 (configuration not stated) 31.6 µM [inhibitor, single point]
Cc1cccc(CSc2cn(CC(=O)N3CCOCC3)c3ccccc23)c1 39.8 µM [inhibitor, single point]
CCN(CC)S(=O)(=O)c1cccc(C(=O)N/N=C/c2ccc(N3CCOCC3)cc2)c1 39.8 µM [inhibitor, single point]
CCOc1ccc2c(c1)c1nnc(SCC(=O)N3CCC(C)CC3)nc1n2C 12.6 µM [inhibitor, partial curve]
Cc1ccc(/C=N/n2c(-c3ccccn3)n[nH]c2=S)o1 39.8 µM [inhibitor, single point]
N#Cc1c(N)nc2c(c1-c1ccc3c(c1)OCO3)CCCCCC2 39.8 µM [inhibitor, single point]
CCN(CC)c1nc(C)nc2c1cnn2CCc1ccccc1 39.8 µM [inhibitor, single point]
COc1ccc2[nH]cc(C=O)c2c1 31.6 µM [inhibitor, single point]
CC(=O)Nc1ccc(S(=O)(=O)Nc2cccc(-c3cn4cccnc4n3)c2)cc1 28.2 µM [inhibitor, partial curve]
Cc1cc2ccccn2c1C(=O)Nc1cccc(Cl)c1 39.8 µM [inhibitor, single point]
Cc1ccc(C)c(S(=O)(=O)NCC(=O)Nc2sc3c(c2C(N)=O)CCC(C)C3)c1 (configuration not stated) 25.1 µM [inhibitor, partial curve]
Cc1n[nH]c(C)c1C(=O)CC1(O)C(=O)N(CCc2ccccc2)c2ccc(Br)cc21 (configuration not stated) 39.8 µM [inhibitor, single point]
O=C(Nc1ccc(N2C(=O)c3cccc4cccc(c34)C2=O)cc1)c1ccc(N2CCCCC2)c([N+](=O)[O-])c1 1.58 µM [inhibitor, full curve]
CCOC(=O)C1(C)C=C(Nc2ccc(OCC)cc2)C(=O)N1c1ccccc1 (configuration not stated) 37.7 µM [inhibitor, single point]
COc1ccc(NC(=S)Nc2ccccc2SC)c(OC)c1 39.8 µM [inhibitor, single point]
c1ccc(CCn2nnnc2C(c2cccnc2)N2CCN(c3nc4ccccc4s3)CC2)cc1 (configuration not stated) 39.8 µM [inhibitor, single point]
COc1ccc(-c2cc(C(F)F)n3ncc(C(=O)NCC4CCCO4)c3n2)cc1 (configuration not stated) 35.5 µM [inhibitor, partial curve]
Cc1ccc(NS(=O)(=O)c2cc(C(=O)NCCSC3CCCCC3)ccc2C)cc1 39.8 µM [inhibitor, single point]
CCCOc1ccc(N2C(=O)CC(SCCc3nc4ccccc4[nH]3)C2=O)cc1 (configuration not stated) 39.8 µM [inhibitor, single point]
COc1cccc2c(=O)n(CC(=O)Nc3ccccc3)ccc12 39.8 µM [inhibitor, single point]
C/C(CCN1CCCc2nc(C)c(C)cc21)=N\O[C@@H](C)c1cn([C@@H]2COC[C@@H]2O)nn1 4.47 µM [inhibitor, single point]

activity, negative = inhibition, inactive:
CCC(C(=O)NCc1ccncc1)c1ccccc1 (configuration not stated) 3.38%
CC(C)(C)NC(=O)c1ccc(Sc2ccccc2)c([N+](=O)[O-])c1 4.21%
Cc1noc(NC(=O)c2ccc(Cl)c(Cl)c2)c1Cl 1.77%
COc1ccc(NC(=O)N2CC3(CCN(S(=O)(=O)c4ccccc4)CC3)C2)cc1 4.2%
COC(=O)C1CCN(C(=O)COC(=O)c2n[nH]c3ccccc23)CC1 -8.53%
Cc1ccc(CNC(=O)C(C)OC(=O)c2ccco2)cc1 (configuration not stated) 2.57%
CC(C)(C)NCC(O)COc1cccc2c1C[C@H](O)[C@H](O)C2 (some centres not stated) -2.4%
Cc1cc(NC(=O)c2ccccc2)n(-c2ccccc2)n1 2.47%
CC1(c2ccc(O)cc2)NC(=O)N(c2ccccc2)N1 (configuration not stated) 11.8%
COC1CCCN(Cc2nc(Cc3ccccc3F)no2)C1 (configuration not stated) 5.48%
CCCCC[C@H](O)C=C[C@H]1[C@H](O)CC(=O)[C@H]1CCCCCCC(=O)O 10.9%
C/C(=N\NC(=O)c1c(Br)cnn1C)c1ccc(NC(=O)c2ccc(F)cc2)cc1 -0.45%
Cc1cccc(NC(=O)CCNC(=O)c2ccco2)c1 10.9%
COc1cccc(C2CC(=O)Nc3cc4c(cc32)OCCO4)c1OC(C)C (configuration not stated) 10.9%
COC(=O)CC1C(=O)NCCN1C(=O)CSc1nnnn1-c1ccc(Cl)cc1 (configuration not stated) 4.71%
CC1C2CCC3C4CC=C5CC(N(C)C)CC[C@@]5(C)C4CC[C@@]32CN1C (some centres not stated) 0.194%
CC(C)Cc1ccc(/C=C/C(=O)N2CCOCC2)cc1 -1.58%
CSc1nnc(-c2ccccc2SC)o1 -15.3%
CC1(OC(=O)C2CCCC2)C(=O)C=C2C=C(c3ccsc3)OC=C2C1=O (configuration not stated) -0.161%
CN1CCN(c2ccc(NC(=O)c3cccc(OCc4ccccc4)c3)cc2)CC1 12.9%
COCCCNC(=O)/C=C/c1ccc(Cl)cc1Cl 1.68%
CC(C)Cn1c(N)c(-c2nc(C(C)C)c(C(=O)c3ccccc3F)s2)c(=O)n(C)c1=O -13.2%
O=C(Nc1ccccc1O)c1ccc(NS(=O)(=O)c2cccc3cccnc23)cc1 -1.52%
O=C(CN1C(=O)C2CCCCC2C1=O)Nc1ccc(S(=O)(=O)Nc2ncccn2)cc1 (configuration not stated) 14.8%
CCOC(=O)CNNC(=O)Nc1ccc(Cl)c(Cl)c1 0.0071%
Cc1c(Cl)cccc1NC(=O)CSc1nnc(CCNC(=O)OC(C)(C)C)o1 -4.26%
